Laboratory results as given in PubChem BioAssay AID1030 (National Center for Advancing Translational Sciences (NCATS), 2008).
Screen size: about 220,000 compounds; about 16,000 (7.3%) were called active. Inconclusive means that the source gave no clear call. Such entries were picked first, then a sample of the others. Calls follow the shape of the dose curve; as a rule, active = well fitted inhibition curve with a large enough effect (not every such curve was filed as active); inconclusive = small, poorly fitted or top-dose-only effect, or another doubt; inactive = no such curve, though single readings can be large or run the other way. Potencies of inconclusive entries are left out as doubtful fits.
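For activity, negative = inhibition in this document: plate controls were no enzyme wells and a reference inhibitor.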
Potency is read from the fitted curve at half-maximal effect; tags tell the direction and shape of the fitted curve.

These molecules were tested against Aldehyde dehydrogenase 1A1 (Homo sapiens) (UniProt P00352) (assay: qHTS Assay for Inhibitors of Aldehyde Dehydrogenase 1 (ALDH1A1)). Settings: Purified ALDH1A1, NADH fluorescence, propionaldehyde substrate; series mostly up to 75.3 µM; activity, negative = inhibition: at the top concentration.
Chain of UniProt P00352 (P00352 whole entry, looked up): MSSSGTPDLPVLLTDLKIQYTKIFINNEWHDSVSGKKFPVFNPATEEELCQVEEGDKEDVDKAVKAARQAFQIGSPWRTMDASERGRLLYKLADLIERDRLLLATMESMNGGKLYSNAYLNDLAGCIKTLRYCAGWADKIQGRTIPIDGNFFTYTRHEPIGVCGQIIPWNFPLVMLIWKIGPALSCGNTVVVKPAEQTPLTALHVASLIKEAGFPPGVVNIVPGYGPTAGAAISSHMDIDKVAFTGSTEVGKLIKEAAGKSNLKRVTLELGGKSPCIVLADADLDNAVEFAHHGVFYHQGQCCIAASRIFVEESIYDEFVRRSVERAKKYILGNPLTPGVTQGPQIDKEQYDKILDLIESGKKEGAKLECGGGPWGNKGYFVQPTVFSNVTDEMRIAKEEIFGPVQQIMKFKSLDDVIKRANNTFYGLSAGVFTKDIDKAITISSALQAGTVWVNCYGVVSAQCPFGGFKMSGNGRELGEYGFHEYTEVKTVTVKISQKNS
`CC(=O)C1=C(C)OC(N)=C(C#N)C1c1cc2cccc(C)c2nc1Cl` (configuration not stated) was tested, and the Potency was inconclusive [inhibitor, single point].
For `CN1c2ccc(Cl)cc2C(=O)NC1C1CC=CCC1` (configuration not stated), the Potency was inconclusive [inhibitor, partial curve].
For `O=[N+]([O-])c1cc(/C=N/O)ccc1N1CCCC1`, the Potency was active: 11.2 µM.
`CN(C)c1ccc(C(CN)c2c[nH]c3ccccc23)cc1` (configuration not stated) was tested, and the Potency was active: 15.8 µM.
In the case of `CC(C)(C)c1ccc2c(c1)C(=O)c1ccccc1C2=O`, the Potency is reported as inconclusive [inhibitor, single point].
With `Cn1c(=O)c(-c2ccc(Cl)cc2)nc2cnc(Oc3ccccc3)nc21` the Potency was inconclusive [inhibitor, single point].
For `Cc1ccc(Nc2cc(C)nc(-c3ccccc3O)n2)cc1`, the Potency was inconclusive [inhibitor, single point].
For `CCNc1ncc2nc(CCc3ccccc3)c(=O)n(CCC#N)c2n1`, the Potency was inconclusive [inhibitor, partial curve].
`Cc1ccc(NC(=O)c2cc(-c3ccco3)on2)cc1C` was tested, and the Potency was inconclusive [inhibitor, single point].
With `O=C1COc2ccc(C(=O)COC(=O)Cn3cnc4ccccc43)cc2N1` the Potency was active: 28.2 µM.
For `O=C(NCc1ccccc1)c1cc(-c2ccco2)on1`, the Potency was inconclusive [inhibitor, single point].
With `COc1ccc(-c2c(NC(C)=O)n(C)c3ccccc3c2=O)cc1` the Potency was inconclusive [inhibitor, single point].
For `O=C1c2c(O)cccc2Cc2cccc(O)c21`, the Potency was active: 25.1 µM.
`COc1ccc2[nH]c(=O)c3c(c2c1)OC(C)(C)C=C3` was tested, and the “activity, negative = inhibition” value was inactive: -6.52%.
With `CN(C)c1ccc(C(=O)Nc2nc3c(s2)CCCC3)cc1` the Potency was inconclusive [inhibitor, partial curve].
In the case of `Nc1[nH]c(N=NC(=O)c2ccccc2O)c2ccccc12`, the “activity, negative = inhibition” value is reported as inactive: 4.21%.
`Cc1cc(/C=C2\SC(=S)NC2=O)c(C)n1-c1ccccc1` was tested, and the Potency was inconclusive [inhibitor, single point].
For `O=C(O)c1ccc(N2CC3CC(C2)c2cccc(=O)n2C3)c(NC(=S)Nc2ccc(Cl)cc2Cl)c1` (configuration not stated), the Potency was active: 15.8 µM.
With `O=C(NC(=S)Nc1ccc(N2CCN(C(=O)c3ccccc3)CC2)cc1)c1cccs1` the Potency was inconclusive [inhibitor, partial curve].
`CCN(CC)S(=O)(=O)c1ccc(C(=O)OCC(=O)Nc2sc3c(c2C#N)CCCCC3)cc1` was tested, and the Potency was inconclusive [inhibitor, single point].
With `CCC(Sc1ccc2nnc(CCNS(=O)(=O)c3ccc(OC)cc3)n2n1)C(=O)OC` (configuration not stated) the Potency was inconclusive [inhibitor, single point].
`CN(C)CCCO/N=C(\c1ccccc1)c1ccncc1` was tested, and the Potency was inconclusive [inhibitor, single point].
In the case of `CN(C)c1cccc(C(=O)OCC(=O)Nc2nccs2)c1`, the “activity, negative = inhibition” value is reported as inactive: 3.71%.
For `O=C(c1cnc2n(c1=O)CCS2)N(c1ccccc1)C1CCCCC1`, the “activity, negative = inhibition” value was inactive: 3.38%.
With `COc1ccc(C(=O)O/N=C(\N)c2ccccc2)c(OC)c1` the Potency was inconclusive [inhibitor, partial curve].
With `O=C(c1cc(=O)[nH]c2ccccc12)N1CCN(S(=O)(=O)c2ccc3ccccc3c2)CC1` the Potency was inconclusive [inhibitor, single point].
For `CCCSc1nsc(SCCC)c1C#N`, the Potency was inconclusive [inhibitor, single point].
With `COC(=O)c1c(NC(C)=O)sc(C)c1C` the “activity, negative = inhibition” value was inactive: 8.87%.
In the case of `O=C1CC(N(C(=O)c2ccco2)c2ccc(F)cc2)C(=O)N1c1ccc(F)cc1` (configuration not stated), the “activity, negative = inhibition” value is reported as inactive: -12.5%.
`Cc1ccc2c(c1)CC1(CN2C)C(=O)OC(C)(C)OC1=O` was tested, and the Potency was inconclusive [inhibitor, single point].
`COc1ccc(C(=O)Nc2c(C)ccc3nsnc23)cc1[N+](=O)[O-]` was tested, and the Potency was inconclusive [inhibitor, single point].
In the case of `O=C1C2=C(c3ccccc31)[N+](=O)[C@@H]1CCCC[C@@H]1N2[O-]`, the “activity, negative = inhibition” value is reported as inactive: -16.3%.
`O=C(N/N=C/c1cccs1)c1ccc(-n2cccc2)cc1` was tested, and the “activity, negative = inhibition” value was inactive: 1.82%.
With `COc1ccc2nc3c(cc2c1)Cc1ccccc1-3` the Potency was inconclusive [inhibitor, partial curve].
For `Cc1ccc(/C=N/NC(=O)c2cccc(S(=O)(=O)Nc3ccccc3Cl)c2)o1`, the Potency was inconclusive [inhibitor, single point].
For `COCc1cc(C)nc(OCC(=O)N/N=C/c2ccc(-c3cc([N+](=O)[O-])ccc3Cl)o2)c1C#N`, the “activity, negative = inhibition” value was inactive: 3.88%.
In the case of `COC(=O)c1sc(NC(=O)c2csc3c2CCCC3)nc1C`, the Potency is reported as inconclusive [inhibitor, single point].
In the case of `CC1=C/C(=N\OS(=O)(=O)c2ccccc2)C=CC1=O`, the Potency is reported as active: 11.2 µM.
In the case of `CCNc1nc(SC(C)C(=O)OC)nc(N(C)C)n1` (configuration not stated), the “activity, negative = inhibition” value is reported as inactive: 6.64%.
With `CC1C=CCC2C(=O)N(c3ccc(OC(=O)c4cccs4)cc3)C(=O)C12` (configuration not stated) the Potency was inconclusive [inhibitor, partial curve].
`Cc1occc1C(=O)N/N=C/C1=C(N2CCOCC2)C(=C\c2ccc(Cl)cc2Cl)/CC1` was tested, and the Potency was inconclusive [inhibitor, single point].
For `CC1=C(C(=O)Nc2ccccc2)C(c2ccco2)C(C#N)=C(SCC(=O)OC(C)C)N1` (configuration not stated), the Potency was inconclusive [inhibitor, partial curve].
With `CC1CCCN(C(=O)c2ccc3c(c2NCCO)C(=O)c2ccccc2C3=O)C1` (configuration not stated) the Potency was inconclusive [inhibitor, single point].
With `CCS(=O)(=O)Nc1cccc(-c2nc3cccnc3s2)c1C` the Potency was inconclusive [inhibitor, single point].
With `CCc1nc(N[C@H](C(=O)O)C(C)C)c2oc3ccccc3c2n1` the Potency was active: 0.794 µM.
With `O=C1CCC[C@@H](C2=CCCCC2=O)C1` the activity, negative = inhibition was inactive: 10.6% [at 13.5 µM].
In the case of `N#Cc1c(NC(=O)CSc2nc3ccccc3s2)sc2c1CCCC2`, the Potency is reported as inconclusive [inhibitor, single point].
For `O=C1N/C(=N/O)S/C1=C/c1cccc([N+](=O)[O-])c1`, the Potency was inconclusive [inhibitor, single point].
For `CC(C)N(Cc1nc(-c2ccccc2)no1)C(=O)CN(C)S(=O)(=O)c1ccccc1`, the Potency was inconclusive [inhibitor, single point].
For `CCOCCCNC(=O)c1ccc2c(c1)ncn2C1CCCC1`, the Potency was inconclusive [inhibitor, single point].
`COc1ccc(CCNC(=O)CC2SC(=NCCC(C)C)NC2=O)cc1OC` (configuration not stated) was tested, and the Potency was inconclusive [inhibitor, partial curve].
With `O=[N+]([O-])c1ccc(S(=O)(=O)CC(CN2CCOCC2)N2CCOCC2)cc1` (configuration not stated) the Potency was inconclusive [inhibitor, single point].
In the case of `COc1ccccc1NS(=O)(=O)c1cc(NC(=O)Nc2ccc(Cl)cc2Cl)ccc1N1CCCCC1`, the Potency is reported as inconclusive [inhibitor, single point].
In the case of `O=c1[nH]c2ccc(Cl)cc2c(-c2ccccc2)c1SC(=S)N1CCCCC1`, the Potency is reported as active: 25.1 µM.
For `Cc1ccccc1Cn1nnc(-c2ccc3c(c2)OCO3)n1`, the Potency was inconclusive [inhibitor, single point].
With `Cc1cc(C)c2c(N)c(C(=O)NN3CC(=O)N(c4ccccc4F)CC3=O)sc2n1` the Potency was inconclusive [inhibitor, partial curve].
In the case of `N[C@H](CCCP(=O)(O)O)C(=O)O`, the Potency is reported as “inactive”.
For `COc1cccc(NC(=O)CSc2nc3ccccc3c3nc4ccccc4n23)c1`, the Potency was inconclusive [inhibitor, partial curve].
`O=C(NCc1ccccc1)c1cc(-c2ccncc2)nc2ccc(S(=O)(=O)N3CCOCC3)cc12` was tested, and the Potency was active: 0.794 µM.
With `CCN1C(=O)N/C(=C/c2ccc(Sc3ccc(C)cc3)o2)C1=O` the Potency was inconclusive [inhibitor, partial curve].
For `CC(C)(C)NC(=O)COC(=O)c1ccc(NC(=O)CC#N)cc1`, the “activity, negative = inhibition” value was inactive: 19%.
In the case of `Cc1cccc(-n2nc(C(=O)Nc3ccccc3)n3c(=O)cc(-c4ccccc4)nc23)c1`, the “activity, negative = inhibition” value is reported as inactive: 10.1%.
In the case of `COc1cccc(NC(=S)N(Cc2ccco2)C(C)c2ccco2)c1` (configuration not stated), the “activity, negative = inhibition” value is reported as inactive: 3.8%.
With `Cc1cccc(-n2nnnc2SCC(=O)NCCN2C(=O)CSC2=O)c1` the Potency was active: 20 µM.
`CCOC(=O)c1c(C)n(-c2ccc(C)cc2)c2ccc(OCC(O)CN3CCN(C)CC3)cc12` (configuration not stated) was tested, and the “activity, negative = inhibition” value was inactive: -2.97%.
With `COCCN1CCn2c(nc3cc(NC(=O)NC4CCCCC4)ccc32)C1` the Potency was inconclusive [inhibitor, partial curve].
For `CN1CCC(N(C)CC(=O)Nc2ccc3c(c2)OC(F)(F)O3)CC1`, the Potency was inconclusive [inhibitor, partial curve].
With `Cc1ccc(C2=NNC(c3cccc(F)c3)S2)cc1` (configuration not stated) the Potency was inconclusive [inhibitor, single point].
`COc1ccc([N+](=O)[O-])cc1N(CC(O)CN1CCCCC1)S(=O)(=O)c1ccccc1` (configuration not stated) was tested, and the Potency was inconclusive [inhibitor, single point].
`S=C(NCCc1ccccc1)Nc1ccc(Br)cn1` was tested, and the Potency was inconclusive [inhibitor, partial curve].
With `CCCn1cc(SCC(=O)Nc2ccc3c(c2)OCO3)c2ccccc21` the Potency was inconclusive [inhibitor, partial curve].
`O=c1c(-c2ccc(O)cc2)coc2c(C3OC(CO)C(O)C(O)C3O)c(O)ccc12` (configuration not stated) was tested, and the Potency was inconclusive [inhibitor, partial curve].
